By IC50 is meant the dose at which the fit gives 50% viability; a fit beyond the top or the lowest dose is shown as a bound at that dose. AUC sums up the same curve from the lowest dose to the 256-fold higher top dose; it is 1 without any effect and falls as sensitivity rises. The top dose, if marked as inferred, comes from the curve model; the source does not state it.
Experiments:
Assay in all cases: Viability of human cancer cell lines after 72 h of drug (GDSC screen)
CAY10603 = compound: CC(C)(C)OC(=O)Nc1ccc(-c2cc(C(=O)NCCCCCCC(=O)NO)no2)cc1 [CAY10603]; details: top dose 20 µM; top dose inferred
Description: (§1)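 Human cancer cell lines in 384-well plates, medium with 10% serum, drug for 72 h over a 256-fold dose range (nine 2-fold or five 4-fold steps up to the top dose). Adherent lines were fixed and stained with the nucleic acid dye Syto60, suspension lines read with resazurin; signal relative to control wells, capped at 0 and 100%. One two-parameter sigmoid per drug and line, fitted in a mixed model over all curves with the slope shared within a line.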

XMD8-92 = compound: CCOc1cc(N2CCC(O)CC2)ccc1Nc1ncc2c(n1)N(C)c1ccccc1C(=O)N2C [XMD8-92]; details: top dose 10 µM; top dose inferred
Description: as §1

CH5424802 = compound: CCc1cc2c(cc1N1CCC(N3CCOCC3)CC1)C(C)(C)c1[nH]c3cc(C#N)ccc3c1C2=O [CH5424802]; details: top dose 5.12 µM; top dose inferred
Description: as §1

ACHP (KIN001-260) = compound: N#Cc1c(C2CCNCC2)cc(-c2c(O)cccc2OCC2CC2)nc1N [ACHP (KIN001-260)]; details: top dose 20 µM; top dose inferred
Description: as §1

Cell Line	AUC (CAY10603)	IC50 (CAY10603)	AUC (XMD8-92)	IC50 (XMD8-92)	AUC (CH5424802)	IC50 (CH5424802)	AUC (ACHP (KIN001-260))	IC50 (ACHP (KIN001-260))
G-401 (kidney, adherent)	0.432	0.797 µM	0.925	> 10 µM	0.981	> 5.12 µM	0.935	> 20 µM
G-MEL (melanoma, adherent)	0.582	2.09 µM	0.802	4.86 µM	0.986	> 5.12 µM	0.967	> 20 µM
GB-1 (glioma, adherent)	0.278	0.258 µM	0.938	> 10 µM	0.976	> 5.12 µM	0.945	> 20 µM
GI-1 (glioma, adherent)	0.372	0.563 µM	0.863	8.06 µM	0.987	> 5.12 µM	0.942	> 20 µM
GI-ME-N (neuroblastoma, adherent)	0.35	0.411 µM	0.703	2.9 µM	0.966	> 5.12 µM	0.898	> 20 µM
GP5d (large intestine, adherent)	0.608	2.39 µM	0.881	8.58 µM	0.967	> 5.12 µM	0.969	> 20 µM
GR-ST (lymphoblastic leukaemia, suspension)	0.476	1.06 µM	0.794	5.72 µM	0.973	> 5.12 µM	0.877	> 20 µM
GRANTA-519 (B-cell lymphoma, suspension)	0.692	4.04 µM	0.969	> 10 µM	0.991	> 5.12 µM	0.983	> 20 µM
GT3TKB (stomach, adherent)	0.676	3.62 µM	0.842	5.85 µM	0.99	> 5.12 µM	0.989	> 20 µM
H9 (lymphoid neoplasm, suspension)	0.992	> 20 µM	0.799	3.84 µM	0.988	> 5.12 µM	0.927	> 20 µM
H513 (mesothelioma, semi-adherent)	0.972	> 20 µM	0.971	> 10 µM	0.982	> 5.12 µM	0.985	> 20 µM
H2369 (mesothelioma, adherent)	0.684	4.18 µM	0.938	> 10 µM	0.982	> 5.12 µM	0.981	> 20 µM
H2461 (mesothelioma, adherent)	0.758	8.55 µM	0.897	> 10 µM	0.982	> 5.12 µM	0.983	> 20 µM
H2591 (mesothelioma, adherent)	0.715	6.18 µM	0.904	> 10 µM	0.978	> 5.12 µM	0.961	> 20 µM
H2595 (mesothelioma, adherent)	0.565	2.01 µM	0.87	> 10 µM	0.973	> 5.12 µM	0.976	> 20 µM
H2722 (mesothelioma, adherent)	0.564	1.93 µM	0.877	> 10 µM	0.984	> 5.12 µM	0.984	> 20 µM
H2731 (mesothelioma, adherent)	0.144	0.0788 µM	0.916	> 10 µM	0.911	> 5.12 µM	0.902	> 20 µM
H2795 (mesothelioma, adherent)	0.66	3.46 µM	0.96	> 10 µM	0.974	> 5.12 µM	0.945	> 20 µM
H2803 (mesothelioma, adherent)	0.61	2.64 µM	0.888	> 10 µM	0.974	> 5.12 µM	0.985	> 20 µM
H2804 (mesothelioma, adherent)	0.632	3.01 µM	0.9	> 10 µM	0.964	> 5.12 µM	0.985	> 20 µM
H2869 (mesothelioma, adherent)	0.637	3.28 µM	0.97	> 10 µM	0.955	> 5.12 µM	0.968	> 20 µM

Cell Line	AUC (CAY10603)	IC50 (CAY10603)	AUC (XMD8-92)	IC50 (XMD8-92)	AUC (CH5424802)	IC50 (CH5424802)	AUC (ACHP (KIN001-260))	IC50 (ACHP (KIN001-260))
H3118 (head and neck, adherent)	0.379	0.562 µM	0.911	> 10 µM	0.966	> 5.12 µM	0.97	> 20 µM
HARA (lung squamous cell carcinoma, adherent)	0.629	3.02 µM	0.881	> 10 µM	0.921	> 5.12 µM	0.943	> 20 µM
HCC38 (breast, adherent)	0.588	2.22 µM	0.932	> 10 µM	0.985	> 5.12 µM	0.957	> 20 µM
HCC1395 (breast, adherent)	0.863	> 20 µM	0.964	> 10 µM	0.98	> 5.12 µM	0.964	> 20 µM
HCC1419 (breast, adherent)	0.747	8.83 µM	0.945	> 10 µM	0.966	> 5.12 µM	0.95	> 20 µM
HCC1428 (breast, adherent)	0.615	2.67 µM	0.954	> 10 µM	0.972	> 5.12 µM	0.972	> 20 µM
HCC1569 (breast, adherent)	0.651	3.79 µM	0.941	> 10 µM	0.962	> 5.12 µM	0.964	> 20 µM
HCC1937 (breast, adherent)	0.604	2.53 µM	0.949	> 10 µM	0.968	> 5.12 µM	0.962	> 20 µM
HCC1954 (breast, adherent)	0.738	6.78 µM	0.982	> 10 µM	0.982	> 5.12 µM	0.984	> 20 µM
HCC2157 (breast, suspension)	0.69	4.38 µM	0.802	5.18 µM	0.965	> 5.12 µM	0.986	> 20 µM
HCC2218 (breast, suspension)	0.563	1.94 µM	0.98	> 10 µM	0.952	> 5.12 µM	0.972	> 20 µM
HCC2998 (large intestine, adherent)	0.708	4.73 µM	0.905	> 10 µM	0.975	> 5.12 µM	0.946	> 20 µM
HCC-15 (lung squamous cell carcinoma, adherent)	0.826	16.9 µM	0.918	> 10 µM	0.954	> 5.12 µM	0.957	> 20 µM
HCC-56 (large intestine, adherent)	0.408	0.694 µM	0.936	> 10 µM	0.925	> 5.12 µM	0.941	> 20 µM
HCC-78 (lung adenocarcinoma, adherent)	0.485	1.13 µM	0.881	> 10 µM	0.977	> 5.12 µM	0.982	> 20 µM
HCT-15 (large intestine, adherent)	0.696	4.63 µM	0.981	> 10 µM	0.98	> 5.12 µM	0.973	> 20 µM
HCT-116 (large intestine, adherent)	0.373	0.568 µM	0.913	> 10 µM	0.984	> 5.12 µM	0.925	> 20 µM
HEC-1 (endometrium, adherent)	0.643	3.06 µM	0.927	> 10 µM	0.989	> 5.12 µM	0.989	> 20 µM
HGC-27 (stomach, adherent)	0.493	1.2 µM	0.875	7.3 µM	0.99	> 5.12 µM	0.969	> 20 µM
HSC-2 (head and neck, adherent)	0.698	4.28 µM	0.874	8.47 µM	0.987	> 5.12 µM	0.989	> 20 µM
HSC-4 (head and neck, adherent)	0.711	6.11 µM	0.796	6.57 µM	0.978	> 5.12 µM	0.979	> 20 µM

Cell Line	AUC (CAY10603)	IC50 (CAY10603)	AUC (XMD8-92)	IC50 (XMD8-92)	AUC (CH5424802)	IC50 (CH5424802)	AUC (ACHP (KIN001-260))	IC50 (ACHP (KIN001-260))
HT55 (large intestine, adherent)	0.771	7.63 µM	0.978	> 10 µM	0.99	> 5.12 µM	0.99	> 20 µM
HT-29 (large intestine, adherent)	0.468	1.02 µM	0.874	9.72 µM	0.985	> 5.12 µM	0.963	> 20 µM
HT-115 (large intestine, adherent)	0.651	3.14 µM	0.974	> 10 µM	0.991	> 5.12 µM	0.991	> 20 µM
HT-1197 (bladder, adherent)	0.612	2.7 µM	0.894	> 10 µM	0.983	> 5.12 µM	0.985	> 20 µM
HUTU-80 (digestive system, adherent)	0.386	0.643 µM	0.982	> 10 µM	0.991	> 5.12 µM	0.973	> 20 µM
Hey (ovary, adherent)	0.394	0.651 µM	0.926	> 10 µM	0.98	> 5.12 µM	0.977	> 20 µM
Hs683 (glioma, adherent)	0.734	5.86 µM	0.954	> 10 µM	0.988	> 5.12 µM	0.983	> 20 µM
Hs766T (pancreas, adherent)	0.811	15 µM	0.921	> 10 µM	0.984	> 5.12 µM	0.984	> 20 µM
Hs939-T (melanoma, adherent)	0.816	12.4 µM	0.943	> 10 µM	0.986	> 5.12 µM	0.981	> 20 µM
Hs940-T (melanoma, adherent)	0.712	5.7 µM	0.958	> 10 µM	0.984	> 5.12 µM	0.981	> 20 µM
Hs-445 (Hodgkin lymphoma, suspension)	0.405	0.702 µM	0.888	9.87 µM	0.988	> 5.12 µM	0.898	> 20 µM
Hs-578-T (breast, adherent)	0.758	7.34 µM	0.928	> 10 µM	0.93	> 5.12 µM	0.987	> 20 µM
HuH-7 (liver, adherent)	0.545	1.66 µM	0.929	> 10 µM	0.985	> 5.12 µM	0.987	> 20 µM
HuO9 (osteosarcoma, adherent)	0.707	5.16 µM	0.875	> 10 µM	0.943	> 5.12 µM	0.981	> 20 µM
HuP-T3 (pancreas, adherent)	0.549	1.75 µM	0.93	> 10 µM	0.971	> 5.12 µM	0.953	> 20 µM
HuP-T4 (pancreas, adherent)	0.447	0.887 µM	0.773	4.13 µM	0.98	> 5.12 µM	0.972	> 20 µM
IA-LM (large cell lung carcinoma, adherent)	0.805	11.6 µM	0.853	9.36 µM	0.983	> 5.12 µM	0.972	> 20 µM
IGR-1 (melanoma, adherent)	0.348	0.502 µM	0.894	9.41 µM	0.99	> 5.12 µM	0.978	> 20 µM
IHH-4 (thyroid, semi-adherent)	0.518	1.38 µM	0.895	7.91 µM	0.993	> 5.12 µM	0.992	> 20 µM
IM-95 (stomach, adherent)	0.665	3.72 µM	0.943	> 10 µM	0.982	> 5.12 µM	0.967	> 20 µM
